Data as given in PubChem BioAssay AID651711 (Broad Institute, 2012).
Hit rate of the full screen: of about 350,000 compounds, about 180 (0.051%) were called active. The shares of active, inactive and inconclusive entries below differ from those in the screen.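 How the source made its calls: active means mean replicate inhibition above about 25%, with every replicate also reaching it (limit read from the data, passing the limit was not always enough); inconclusive means only one of those two criteria met; inactive means neither criterion met.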

Molecular target: Protein disulfide-isomerase A6 (Homo sapiens) (UniProt Q15084)
Assay: inhibitors of ERp5-driven insulin aggregation, primary screen, biochemical, turbidity, absorbance 650 nm, single point (AID 651711)
Settings: 90 min, at 9.99 µM, stronger effect = higher value

Chain of UniProt Q15084 (Q15084 whole entry, looked up): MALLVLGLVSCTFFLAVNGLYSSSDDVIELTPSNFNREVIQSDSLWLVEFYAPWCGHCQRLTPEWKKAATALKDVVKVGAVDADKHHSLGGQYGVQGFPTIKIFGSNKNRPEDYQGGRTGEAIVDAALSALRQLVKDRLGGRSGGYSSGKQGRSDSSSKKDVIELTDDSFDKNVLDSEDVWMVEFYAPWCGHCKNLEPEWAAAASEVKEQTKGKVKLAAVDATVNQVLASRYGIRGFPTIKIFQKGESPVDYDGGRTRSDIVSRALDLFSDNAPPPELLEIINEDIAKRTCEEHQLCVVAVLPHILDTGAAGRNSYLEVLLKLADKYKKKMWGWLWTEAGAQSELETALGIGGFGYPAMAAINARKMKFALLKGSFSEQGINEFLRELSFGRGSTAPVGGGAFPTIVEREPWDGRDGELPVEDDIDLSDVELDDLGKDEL

SMILES | inhibition
C[C@@H]1CN([C@H](C)CO)C(=O)c2cc(NC(=O)C3CCCCC3)ccc2O[C@H]1CN(C)Cc1ccccc1 | inactive: 0.452%
CC(C)NC(=O)N1[C@H](C#N)[C@@H](c2ccc(C#CC3CC3)cc2)[C@@H]1CO | inconclusive: 40%
CCN(CC)CC(O)Cn1c(C)c(-c2ccccc2)c2cc([N+](=O)[O-])ccc21 (configuration not stated) | inactive: 1.16%
Cc1ccc(C(=O)COC(=O)c2ccc(O)cc2)cc1 | inconclusive: 36.3%
C[C@H]1CN([C@@H](C)CO)C(=O)c2cc(C#CCN(C)C)cnc2O[C@H]1CN(C)Cc1cccc(C(=O)O)c1 | inactive: -3.29%
C[C@@H]1CN([C@@H](C)CO)C(=O)c2cc(-c3ccccc3F)cnc2O[C@@H]1CN(C)C | inactive: -8.1%
COc1cc(C2c3cc4c(cc3OC(NNC(N)=S)C2C)OCO4)cc(OC)c1OC (configuration not stated) | inactive: -1.96%
COc1cccc(CNC(=O)C[C@H]2C=C[C@@H](NC(=O)C3CCOCC3)[C@@H](CO)O2)c1 | inactive: -2.11%
CCC(=O)Nc1ccc2c(c1)OC[C@H](C)N(Cc1cccnc1)C[C@H](C)[C@H](OC)CN(C)C2=O | active: 28.6%
COc1ccc(C(=O)N(c2ccc(C)cc2)C2C=CS(=O)(=O)C2)cc1OC (configuration not stated) | inconclusive: 50.2%
COC(=O)c1cn(NC(=O)c2cc([N+](=O)[O-])ccc2F)c(=O)c2ccccc12 | inconclusive: 36.4%
CCn1c2ccccc2c2cc([N+](=O)[O-])ccc21 | inconclusive: 38.1%
COc1ccc(S(=O)(=O)N2CCc3ccccc32)cc1C(=O)Nc1cccnc1 | inconclusive: 26.6%
COc1ccc(N=Cc2c(O)cc(C)oc2=O)cc1 | inconclusive: 47.9%
COc1ccc(C2=NOC(C(=O)NO)C2)cc1OC1CCCC1 (configuration not stated) | inconclusive: 34.5%
COC(=O)c1ccccc1N=Nc1c(C)[nH][nH]c1=O | inconclusive: 39.9%
Cc1nn(-c2ccccc2)c(C)c1/C=C1\C(=O)N(C)C(=S)N1C | inconclusive: 46.6%
COc1ccc(CC(=O)Nc2nc(-c3cc(OC)ccc3OC)cs2)cc1 | inactive: -0.548%
COc1ccc(NC(=O)N(C)C[C@@H]2Oc3ccc(NC(=O)CCCN(C)C)cc3CC(=O)N([C@H](C)CO)C[C@H]2C)cc1 | inconclusive: 50.5%
C[C@@H]1CN([C@H](C)CO)C(=O)Cc2cc(NC(=O)NC3CCCCC3)ccc2O[C@@H]1CN(C)Cc1ccccc1 | inconclusive: 45.7%
Cc1nc(N/N=C\c2ccc3c(c2)OCO3)sc1C | inconclusive: 35.9%

SMILES | inhibition
NS(=O)(=O)c1ccc(NC(=O)/C=C/c2ccco2)cc1 | inconclusive: 25.2%
O=C(C[C@H]1C(=O)N(Cc2cccnc2)C[C@@H]1Cc1ccccc1)Nc1ccccc1 | inactive: 6.97%
Cc1ccc(S(=O)(=O)N2CCCCC2)cc1NC(=O)Cn1ccsc1=N | inconclusive: 27.3%
Cn1nc(-c2ccccn2)nc2c(=O)n(C)c(=O)nc1-2 | active: 102%
CC(C)NC(=O)N(C)C[C@@H]1Oc2ncc(-c3cc4ccccc4o3)cc2C(=O)N([C@H](C)CO)C[C@@H]1C | active: 28.4%
c1ccc(-c2nnsc2-c2nc3ccccc3[nH]2)cc1 | inactive: 1.11%
O=C(Nc1nccs1)c1ccccn1 | inactive: -2.69%
NC(=S)N/N=C/c1ccc(-c2cc(Cl)ccc2Cl)o1 | inconclusive: 38.8%
CCN(CC1CCCO1)C(=O)CCc1nnc(Cc2ccc3c(c2)OCO3)o1 (configuration not stated) | inconclusive: 37.5%
Cc1ccc(-n2c(-c3ccccc3)cc(/C=N/NC(=O)CC#N)c2-c2ccccc2)cc1 | inconclusive: 36.4%
Nc1ccc(S(=O)(=O)Nc2nccc(/C=C/c3cccc([N+](=O)[O-])c3)n2)cc1 | inactive: 2.56%
COC(=O)[C@]1(C)N[C@H](CN(C)S(=O)(=O)c2ccc(OC(F)(F)F)cc2)[C@@H]2C(=O)N(C)C(=O)[C@@H]21 | active: 34.1%
CCOC(=O)c1c(NC(=O)CCC(=O)O)sc2c1CCCCC2 | inconclusive: 41.4%
CCC(C)NC(=S)N1CCN(Cc2ccccc2)CC1 (configuration not stated) | inconclusive: 42.5%
O=C(CSc1cccc2cccc(Cl)c12)NC1=NCCS1 | inconclusive: 34.8%
CCOC(=O)C1CCCN(c2c(NCCN3CCCCC3C)c(=O)c2=O)C1 (configuration not stated) | inconclusive: 42.6%
O=C(Nc1cccc(C(=O)O)c1)/C(=C\C=C\c1ccccc1)NC(=O)c1ccccc1 | inactive: -2.95%
CC=Cc1ccc2n(c1=O)C[C@@H]1[C@@H](CO)[C@H](C(=O)N(C)C)N(CC3CCCCC3)[C@H]21 (mixture of isomers) | inactive: 7.79%
CCc1cccc(CC)c1NC(=O)COC(=O)c1cccc(S(=O)(=O)N2CCc3ccccc3C2)c1 | inconclusive: 44.9%
CCOCCc1c(O)nc(SCC)[nH]c1=O | inconclusive: 40.4%
COC(=O)C1=C(C)OC(N)=C(C#N)C1c1cc2cc(C)ccc2nc1Cl (configuration not stated) | inconclusive: 47.8%

SMILES | inhibition
Nc1nc(NC(=O)C(Cl)(Cl)Cl)nn1-c1ccccc1 | inactive: 0.448%
CCC(=O)C1=C(O)C(c2cccc(Oc3ccccc3)c2)CCC1=O (configuration not stated) | inactive: -0.349%
CCOC(=O)c1cc2c(=O)[nH]ccc2nc1C(F)(F)F | inconclusive: 39.6%
COc1ccccc1NC(=O)Nc1nnc(CC(=O)Nc2ccccc2)s1 | inconclusive: 38.3%
CCOC(=O)/C=C/C(=O)OCC(=O)Nc1ccc(C)cc1 | inconclusive: 33.7%
Cc1ccc(N2CCN(S(=O)(=O)N(C)C)CC2)cc1C | inconclusive: 44%
C[C@]12C(=O)N(c3ccc(F)cc3)C(=O)N1[C@@H]1c3ccccc3OC[C@@H]1[C@H]2c1ccccc1 | inactive: -2.25%
CC(C)CN1CC(C(=O)O)CC1=O (configuration not stated) | inconclusive: 41.7%
Cc1ccc(S(=O)(=O)Nc2nc(C)cc(NN)n2)cc1 | inconclusive: 39.9%
C[N+]1(CC(=O)OCCCc2ccccc2)CCCC1 | inactive: 3.78%
Fc1ccc(C2CC(c3ccco3)n3ncnc3N2)cc1 (configuration not stated) | inconclusive: 47.5%
C[C@@H]1CCCCO[C@H](CN(C)S(=O)(=O)c2ccccc2)[C@@H](C)CN([C@@H](C)CO)C(=O)c2cc(NS(=O)(=O)c3ccc(F)cc3)ccc2O1 | inactive: 13.8%
CCc1ccc2[nH]c(=O)c(CN(CCN(C)C)C(=S)NCc3ccco3)cc2c1 | inconclusive: 44.5%
Cc1ccc(NC(=O)CN(C)S(=O)(=O)c2cccc3cccnc23)cc1 | inconclusive: 34.9%
COCCNC(=O)/C(C#N)=C/c1c(F)cccc1Cl | inconclusive: 45.1%
CCCCn1c(=N)n(CC(O)c2ccccc2)c2ccccc21 (configuration not stated) | inconclusive: 40.4%
Cc1c(-c2cc(C(=O)O)c3ccccc3n2)cnn1C | inconclusive: 41.1%
Oc1ccc(/C=N/Nc2ccnc3cc(Cl)ccc23)c(O)c1 | inconclusive: 35.1%
C[C@@H]1CN([C@H](C)CO)S(=O)(=O)c2ccc(C#CC3CC3)cc2O[C@H]1CN(C)C(=O)c1cccc(F)c1 | inactive: -0.949%
COC(=O)c1cccc(Nc2ncnc3ccc(C)cc23)c1 | inconclusive: 52.5%
Cc1ccc(NC(NC(=O)c2cccnc2)C(Cl)(Cl)Cl)cc1 (configuration not stated) | inactive: 0.964%

SMILES | inhibition
O=C(CCSCc1cccc(Cl)c1)NCCc1ccccc1 | inconclusive: 29.6%
Cc1c[n+]([O-])ccc1Oc1ccc([N+](=O)[O-])cc1 | inconclusive: 49.5%
O=C(Nc1ccc(F)cc1)C(CCc1ccccc1)N1CCN(CC(=O)N2CCCC2)CC1 (configuration not stated) | inconclusive: 52.2%
CC(Oc1ccccc1F)C(=O)NN (configuration not stated) | inconclusive: 25.8%
CCOC(=O)CSc1nc2cc3c(cc2cc1C#N)OCCO3 | inconclusive: 35.6%
CN(C)C1=C(Cl)C(=O)N(c2ccc(Cl)c(Cl)c2)C1=O | inactive: -1.49%
COc1ccccc1C#Cc1ccc([C@@H]2[C@H]3CN(C(=O)C4CCC4)CCCCN3[C@H]2CO)cc1 | inactive: -2.37%
COc1ccccc1NS(=O)(=O)c1cccs1 | inconclusive: 37%
O=C(NCCc1cccs1)C1CC(c2c(Cl)cccc2Cl)=NO1 (configuration not stated) | inconclusive: 43.3%
O=C1NC[C@@H](CCCCN2C[C@H](Cc3ccc(O)cc3)N(CCC3CCCCC3)C(=O)C2=O)N(CCc2ccc(O)cc2)C1=O | inactive: 0.583%
CCN1[C@@H]2c3ccc(-c4cccc(F)c4)c(=O)n3C[C@@H]2[C@@H](CO)[C@@H]1C(=O)OC | inactive: -5.65%
CC(NC(=O)c1cccc(S(=O)(=O)N2CCN(Cc3ccccc3)CC2)c1)c1ccc(Br)cc1 (configuration not stated) | inactive: 8.22%
O=C(CC1CC1)N1CC(=O)N2[C@@H](CO)[C@@H](c3ccc(C#Cc4cccc(F)c4)cc3)[C@@H]2C1 | inactive: 2.29%
CCOC(=O)c1cc(-c2ccc(/C=C3/C(=O)NC(=O)C(C#N)=C3C)o2)ccc1Cl | inconclusive: 43.8%
CCOC(=O)C(CC)(CCC(=O)O)c1csc(Nc2ccc(C)cc2)n1 (configuration not stated) | inconclusive: 38.6%
Cc1ccc(-n2[nH]c(C)c(/C=N/c3ccccn3)c2=O)cc1 | inactive: 3.39%
Cc1cccc(-c2nnc(SCC(=O)N3c4ccccc4CCc4ccccc43)n2C)c1 | inconclusive: 43.5%
COc1ccc(S(=O)(=O)Nc2ccc3c(c2)C(=O)N([C@H](C)CO)C[C@@H](C)[C@@H](CN(C)Cc2ccc(C(=O)O)cc2)OCCCC[C@@H](C)O3)cc1 | inactive: -1.87%
COc1ccc(NC(=O)Nc2ccc3c(c2)C(=O)N([C@H](C)CO)C[C@H](C)[C@@H](CN(C)C(=O)C2CCCCC2)OCCCC[C@H](C)O3)cc1 | active: 29.6%
